Here are results for 20 molecules from PMC9911399, “Two distinct binding modes provide the RNA-binding protein RbFox with extraordinary sequence specificity”.

T1: RBFOX1 RRM (Homo sapiens, UniProt Q9NWB1 109-208)
T1 sequence: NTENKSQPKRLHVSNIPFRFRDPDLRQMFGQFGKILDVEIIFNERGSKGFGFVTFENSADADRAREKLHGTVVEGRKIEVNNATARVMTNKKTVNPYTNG

B1: AAUGUGU (DNA:RNA)
RNA: GGGAGACCGGAAUUCAGAUUGUCCAAUGUGUUUAAAUCCCGUCGUAGCCACCA
DNA 1: CAATCTGAATTCCGGTCTCCC
DNA 2: TGGTGGCTACGACGGGATT
B2: CGGGGUC (DNA:RNA)
RNA: B1 RNA with A25C, A26G, U27G, U29G, G30U, U31C
DNA 1: CAATCTGAATTCCGGTCTCCC
DNA 2: TGGTGGCTACGACGGGATT
B3: ACUUGAC (DNA:RNA)
RNA: B1 RNA with A26C, G28U, U29G, G30A, U31C
DNA 1: CAATCTGAATTCCGGTCTCCC
DNA 2: TGGTGGCTACGACGGGATT
B4: AUAGCUU (DNA:RNA)
RNA: B1 RNA with A26U, U27A, U29C, G30U
DNA 1: CAATCTGAATTCCGGTCTCCC
DNA 2: TGGTGGCTACGACGGGATT
B5: GGGAAGG (DNA:RNA)
RNA: B1 RNA with A25G, A26G, U27G, G28A, U29A, U31G
DNA 1: CAATCTGAATTCCGGTCTCCC
DNA 2: TGGTGGCTACGACGGGATT
B6: GACUGCU (DNA:RNA)
RNA: B1 RNA with A25G, U27C, G28U, U29G, G30C
DNA 1: CAATCTGAATTCCGGTCTCCC
DNA 2: TGGTGGCTACGACGGGATT
B7: CGGUACA (DNA:RNA)
RNA: GGGAGACCGGAAUUCAGAUUGUCCCGGUACAUUAAAUCCCGUCGUAGCCACCA
DNA 1: CAATCTGAATTCCGGTCTCCC
DNA 2: TGGTGGCTACGACGGGATT
B8: CGCACGU (DNA:RNA)
RNA: B1 RNA with A25C, A26G, U27C, G28A, U29C
DNA 1: CAATCTGAATTCCGGTCTCCC
DNA 2: TGGTGGCTACGACGGGATT
B9: GAAACAC (DNA:RNA)
RNA: B1 RNA with A25G, U27A, G28A, U29C, G30A, U31C
DNA 1: CAATCTGAATTCCGGTCTCCC
DNA 2: TGGTGGCTACGACGGGATT
B10: UUUCGGG (DNA:RNA)
RNA: B1 RNA with A25U, A26U, G28C, U29G, U31G
DNA 1: CAATCTGAATTCCGGTCTCCC
DNA 2: TGGTGGCTACGACGGGATT
B11: ACACUCC (DNA:RNA)
RNA: B1 RNA with A26C, U27A, G28C, G30C, U31C
DNA 1: CAATCTGAATTCCGGTCTCCC
DNA 2: TGGTGGCTACGACGGGATT
B12: UCGACCG (DNA:RNA)
RNA: B7 RNA with C25U, G26C, U28A, A29C, A31G
DNA 1: CAATCTGAATTCCGGTCTCCC
DNA 2: TGGTGGCTACGACGGGATT
B13: CGCCUAG (DNA:RNA)
RNA: B7 RNA with G27C, U28C, A29U, C30A, A31G
DNA 1: CAATCTGAATTCCGGTCTCCC
DNA 2: TGGTGGCTACGACGGGATT
B14: UAACUCU (DNA:RNA)
RNA: B1 RNA with A25U, U27A, G28C, G30C
DNA 1: CAATCTGAATTCCGGTCTCCC
DNA 2: TGGTGGCTACGACGGGATT
B15: CCUCUAG (DNA:RNA)
RNA: B1 RNA with A25C, A26C, G28C, G30A, U31G
DNA 1: CAATCTGAATTCCGGTCTCCC
DNA 2: TGGTGGCTACGACGGGATT
B16: UCAUAAG (DNA:RNA)
RNA: B7 RNA with C25U, G26C, G27A, C30A, A31G
DNA 1: CAATCTGAATTCCGGTCTCCC
DNA 2: TGGTGGCTACGACGGGATT
B17: GCGGGCU (DNA:RNA)
RNA: B1 RNA with A25G, A26C, U27G, U29G, G30C
DNA 1: CAATCTGAATTCCGGTCTCCC
DNA 2: TGGTGGCTACGACGGGATT
B18: UAGCCUU (DNA:RNA)
RNA: B1 RNA with A25U, U27G, G28C, U29C, G30U
DNA 1: CAATCTGAATTCCGGTCTCCC
DNA 2: TGGTGGCTACGACGGGATT
B19: AAGCAGU (DNA:RNA)
RNA: B1 RNA with U27G, G28C, U29A
DNA 1: CAATCTGAATTCCGGTCTCCC
DNA 2: TGGTGGCTACGACGGGATT
B20: GUUAACU (DNA:RNA)
RNA: B1 RNA with A25G, A26U, G28A, U29A, G30C
DNA 1: CAATCTGAATTCCGGTCTCCC
DNA 2: TGGTGGCTACGACGGGATT

Where a chain is given by its changes, count along the chain named. The list shows a part of the results.

The target of this assay is T1, RBFOX1 RRM. Kind of assay: EMSA; HiTS-Eq, 1 nM pool, 10 min; buffer printed only for the single-RNA assays: 10 mM Tris pH 7.5, 150 mM NaCl, 3.4 mM EDTA, 0.001% NP-40, 30 C. To be noted: tags: His6 N-terminal (pET28a); label: 5' 32P. The method in brief:
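A pool of RNA with 7 randomized nucleotides, 5′-radiolabelled and with DNA-annealed flanks, was equilibrated at 1 nM for 10 min in 50 µL with purified RbFox RRM, wild type or mutant, across increasing protein concentrations. Free RNA was separated by 8% native PAGE, excised, reverse-transcribed, barcoded by PCR and sequenced. Relative association constants were obtained from read-count changes of each RNA species versus the control reaction and normalised to the cognate motif.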
In general terms: A gel shift assay detects complexes by their altered migration in electrophoresis.
For the molecule B1, the binding signal was 0.0115 KA relative to UGCAUGU.

Regarding B2, the binding signal was 0.0407 KA relative to UGCAUGU.

Consider B3, for which the binding signal is 0.0078 KA relative to UGCAUGU.

B4: the binding signal is 0.00333 KA relative to UGCAUGU.

B5: the binding signal is 0.024 KA relative to UGCAUGU.

Regarding B6, the binding signal was 0.0255 KA relative to UGCAUGU.

For the molecule B7, the binding signal was 0.0069 KA relative to UGCAUGU.

On to B8, for which the binding signal is 0.0433 KA relative to UGCAUGU.

Consider B9, for which the binding signal was 0.00274 KA relative to UGCAUGU.

Turning to B10, the binding signal was 0.00493 KA relative to UGCAUGU.

As to B11, the binding signal was 0.000416 KA relative to UGCAUGU.

As to B12, the binding signal is 0.0112 KA relative to UGCAUGU.

Consider B13, for which the binding signal is 0.00888 KA relative to UGCAUGU.

In the case of B14, the binding signal is 0.00476 KA relative to UGCAUGU.

On to B15, for which the binding signal is 0.00474 KA relative to UGCAUGU.

Regarding B16, the binding signal is 0.00754 KA relative to UGCAUGU.

In the case of B17, the binding signal was 0.0197 KA relative to UGCAUGU.

Take B18: the binding signal is 0.0105 KA relative to UGCAUGU.

With B19, the binding signal was 0.00499 KA relative to UGCAUGU.

B20: the binding signal was 0.00708 KA relative to UGCAUGU.
